For one molecule, IC50 results are on record in patent US20220064250A1 (AKSTON BIOSCIENCES, published 2022).

The target of the test is T1, human insulin receptor on human IM-9 cells (human).
T1 construct: whole, on cells; Endogenous receptor on IM-9 cells; assay run at 4 C; also called IR
In words: IM-9 cells, competition with biotinylated RHI, flow cytometry, 4 C (Table 5, same data as Table 9). On the procedure:
Cultures of IM-9 cells were centrifuged at 250×g (˜1000 rpm) for 10 min to pellet the cells. Cells were washed once with HBSS or PBS buffer, resuspended in cold FACS staining medium (HBSS/2 mM EDTA/0.1% Na-azide+4% horse serum) to a concentration of 8×10^6 cells/mL and kept on ice or 4° C. until test solutions were made. The insulin-Fc protein was diluted in FACS buffer in 1:3 serial dilutions as 2× concentrations in 1.2 mL tubes (approx. 60 μL volume of each dilution), and the solutions were kept cold on ice until ready for pipetting.
Biotinylated-RHI was diluted in FACS staining medium to a concentration of 1.25 μg/mL. 40 μL of the serially diluted test compound and 8 μL of 1.25 μg/mL Biotin-RHI were added into each well of a V bottom microtiter plate, mixed by slow vortexing, and placed on ice. […]
The V-bottom plates containing cells were then analyzed on a Guava 8-HT flow cytometer (Millipore). Biotinylated-RHI binding to insulin receptor was quantitated by the median fluorescence intensity (MFI) of the cells on the FACS FL-2 channel for each concentration of the test compound. […] The % inhibition by test compounds of biotinylated-RHI binding on IM-9 cells was plotted against log concentrations of the test compound, and the resulting IC50 values were calculated using GraphPad Prism (GraphPad Software, La Jolla, Calif.) for the test compounds.
On the technique in general: Flow cytometry measures light scatter and fluorescence of single cells or particles in a stream.

B1: insulin-Fc fusion protein of SEQ ID NO: 49 (insulin polypeptide SEQ ID NO: 24 with native B10H and A8T, linker SEQ ID NO: 25, canine IgGB Fc fragment with … (Fc fusion)
chain: FVNQHLCGSHLVEALALVCGERGFFYTDPTGGGPRR[about 20 residues not spelt out]GGGGAGGGGDCPKCPAPEMLGGPSVFIFPPKPKDTLLIARTPEVTCVVVDLDPEDPEVQISWFVDGKQMQTAKTQPREEQFQGTYRVVSVLPIGHQDWLKGKQFTCKVNNKALPSPIERTISKARGQAHQPSVYVLPPSREELSKNTVSLTCLIKDFFPPDIDVEWQSNGQQEPESKYRTTPPQLDEDGSYFLYSKLSVDKSRWQRGDTFICAVMHEALHNHYTQESLSHSPG
notes: Non-glycosylated homodimer made in HEK293 cells; also called cNg-NB139-Q
What is called IC50 is the point on the concentration scale where inhibition reaches its midpoint. The molecule B1 had an IC50 of over 5 µM.
